According to patent US20150110781A1:

Target: Inactivated Rabies Virus Vaccine (Rabipur®, Chiron Behring GmbH & Co.) (rabies virus)

B1: Hu2G11-2 (antibody)
heavy: EVQLVESGGGLVQPGGSLILSCAASGFTFSGFAMSWVRQAPGKGLEWVATISSGGTYTYSPDSVMGRFTISRDNAKNSLYLQMNSLRAEDTAVYYCARRLRRNYYSMDYWGQGTMVTVSS[no letters for human IgG1 constant region]
light: DIVMTQSPLSLPVTPGEPASISCKSTKSLLNSDGFTYLDWYLQKPGQSPQLLIYLVSNRFSGVPDRFSGSGSGTDFTLKISRVEAEDVGVYYCFQSNYLPFTFGGGTKVEIKRTVAAPSVFIFPPSDEQLKSGTASVVCLLNNFYPREAKVQWKVDNALQSGNSQESVTEQDSKDSTYSLSSTLTLSKADYEKHKVYACEVTHQGLSSPVTKSFNRGEC
B1 showed an IC50 of 0.23 µg/mL.
